Assay results published in PMC4336329 (PLoS ONE, 2015).
About 14,000 (4.5%) of roughly 310,000 compounds showed an effect of 50% or more. The effect is printed as a negative number. The list shows a part of the results.

What follows are compounds tested against human ether-à-go-go-related gene (hERG) potassium channel (human, UniProt Q12809) (assay: primary screen, population patch clamp on CHO cells stably expressing hERG).
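Further: peak tail current of the secondary pulse compared with the same well before compound.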

human ether-à-go-go-related gene (hERG) potassium channel, sequence (Q12809 whole entry, looked up): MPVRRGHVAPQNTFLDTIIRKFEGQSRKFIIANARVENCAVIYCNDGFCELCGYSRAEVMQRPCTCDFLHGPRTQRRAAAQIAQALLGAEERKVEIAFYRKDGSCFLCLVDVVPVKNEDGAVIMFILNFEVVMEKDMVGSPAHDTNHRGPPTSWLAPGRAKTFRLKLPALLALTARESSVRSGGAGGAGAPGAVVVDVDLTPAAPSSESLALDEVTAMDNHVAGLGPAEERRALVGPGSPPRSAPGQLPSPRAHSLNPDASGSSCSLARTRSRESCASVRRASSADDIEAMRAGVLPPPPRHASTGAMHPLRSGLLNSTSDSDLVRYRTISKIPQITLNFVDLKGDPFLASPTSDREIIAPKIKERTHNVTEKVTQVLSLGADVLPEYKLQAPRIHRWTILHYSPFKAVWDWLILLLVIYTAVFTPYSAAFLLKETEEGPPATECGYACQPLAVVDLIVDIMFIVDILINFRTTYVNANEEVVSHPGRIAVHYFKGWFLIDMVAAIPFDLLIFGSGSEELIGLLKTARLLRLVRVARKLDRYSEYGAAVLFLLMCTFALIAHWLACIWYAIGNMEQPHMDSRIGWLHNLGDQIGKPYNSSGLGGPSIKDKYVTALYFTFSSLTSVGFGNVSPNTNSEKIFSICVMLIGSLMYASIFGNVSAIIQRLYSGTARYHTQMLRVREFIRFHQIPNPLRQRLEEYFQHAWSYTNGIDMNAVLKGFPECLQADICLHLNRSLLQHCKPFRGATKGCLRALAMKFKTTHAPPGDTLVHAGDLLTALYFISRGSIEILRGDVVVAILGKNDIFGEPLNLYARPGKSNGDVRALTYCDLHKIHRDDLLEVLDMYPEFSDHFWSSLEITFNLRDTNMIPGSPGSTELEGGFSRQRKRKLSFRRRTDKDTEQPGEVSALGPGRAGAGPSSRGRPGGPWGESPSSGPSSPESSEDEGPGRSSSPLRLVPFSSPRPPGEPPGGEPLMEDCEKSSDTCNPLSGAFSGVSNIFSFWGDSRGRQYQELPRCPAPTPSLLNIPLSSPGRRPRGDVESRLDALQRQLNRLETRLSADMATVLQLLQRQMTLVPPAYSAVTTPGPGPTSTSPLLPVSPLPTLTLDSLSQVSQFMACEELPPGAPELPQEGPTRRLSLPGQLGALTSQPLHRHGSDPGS

Compound | hERG current change (%, negative = inhibition) at 10uM [%]
COc1ccc(C)cc1NC(=O)Nn1cnnc1 | -4.55
CCOC(=O)c1[nH]nc2c1C(=O)N(Cc1ccccc1)C2=O | 6.13
CCOC(=O)C1=C(N)Oc2ccccc2C12C(=O)N(CC(=O)OC)C(CC(=O)OC)=C2C(=O)OC (centres unmarked) | 7.24
CC1(c2cnc(Nc3ccccc3)s2)CCC(=O)O1 (centres unmarked) | 1.59
Cc1ccc(-c2nnc(-c3ccc4c(c3)OCO4)o2)cc1 | -11
CCc1ccc(NC(=O)C(=O)c2ccccc2NC(C)=O)cc1 | -28.9
CCC1(C)Cc2c(C#N)c(N)n(N)c(=S)c2CO1 (centres unmarked) | 3.64
O=C1COc2ccc(C(=O)COC(=O)CCSc3ccc(Cl)cc3)cc2N1 | 22.4
O=C(O)C1Nc2c(cccc2C(F)(F)F)C2C=CCC12 (centres unmarked) | 17.9
Cc1cccc(N=C2NC(=O)/C(=C/C=C/c3ccco3)S2)c1 | 12.1
N#CC(c1ccc(Cl)cc1)N1CCOCC1 (centres unmarked) | 21.1
COC(=O)c1ccccc1SCC(=O)Nc1ccc(N2CCOCC2)cc1 | 11.7
COC(=O)c1sccc1NC(=O)c1ccc(OC)c(OC)c1 | 0.72
COCCCNc1oc(/C=C/c2ccccc2)nc1C#N | -3.78
Cc1oc(-c2cccs2)nc1CN1CCC(CO)(CCOc2ccccc2)CC1 | -67
O=C(COC(=O)CSc1ccc2ccccc2c1Br)NC1CC1 | 11.5
CC1Nc2nc(N(C)C)[nH]c(=O)c2NC1C.Cl.O (centres unmarked) | 2.37
O=C(Nc1sc2c(c1C(=O)NCCO)CCCC2)c1ccco1 | -36
Cc1ccc(-c2cc(-c3ccccc3)nc(N)c2C#N)o1 | 17.1
Cc1ccc(-n2ncc3c(NCc4cccnc4)ncnc32)cc1C | -18.5
O=S(=O)(NCCN1CCCC1)c1cccc2cccnc12 | 4.11
COC(=O)c1cccnc1-n1c(=O)c2cccnc2n(Cc2ccc(Cl)cc2)c1=O | -26.6
COc1ccc(-c2noc(CCC(=O)NC3CCCCCC3)n2)cc1 | -4.89

Compound | hERG current change (%, negative = inhibition) at 10uM [%]
CCc1cc2c3c(c1)C1(C(=O)N3C(C)(C)C=C2C)C(C#N)=C(N)Oc2[nH]c(=O)[nH]c(=O)c21 (centres unmarked) | 3.95
CC(=O)c1cccc(NC2c3ncccc3C(=O)N2Cc2ccco2)c1 (centres unmarked) | -10.6
N#Cc1c(F)cccc1NCc1cccs1 | 5.69
Cc1ccc(/C=C/C(=O)c2ccccc(=O)c2O)cc1C | -24.6
Cc1cc(C(=O)CSc2nc3ccccc3[nH]2)c(C)n1Cc1ccco1 | 9.65
CCOc1ccc(-c2[nH]ncc2Oc2cccc(OC)c2)c(O)c1 | -8.67
CC(C)c1ccc(N=C(N)N=C(N)N)cc1.Cl | -47.1
COC(=O)CCCCCCCCCCN1CCCCC1 | -17.3
O=C(NC1CCCCCCC1)c1cccc(Cl)c1 | 19.9
Cc1c(C(=O)N2CCOCC2)c(S(=O)(=O)N2CCN(c3ccc(Cl)cc3)CC2)c(C)n1C | -37.6
CCCCC(CC)COC(=O)CCCCC(=O)OCC(CC)CCCC (centres unmarked) | 15.8
COc1ccccc1C(=O)COC(=O)CNC(=O)c1ccc(Br)o1 | -50.7
COc1ccc(C(=O)Nc2cccc(-c3cc4ccccc4oc3=O)c2)cc1[N+](=O)[O-] | -0.143
CSc1nc2ncc(-c3ccsc3)c(N)n2n1 | 11.2
O=C(Nc1ccc(NC(=O)c2ccc(Cl)cc2Cl)cc1)c1cccs1 | 14.7
O=C(NCc1ccco1)C1CCN(C(=O)Cc2ccccc2)CC1 | 7.07
S=C(Nc1ccc2snnc2c1)N1CCN(c2ccccn2)CC1 | -0.00312
COC(=O)COC(=O)c1ccc(-n2nnnc2SC)cc1 | 3.88
COC(=O)c1cccc(C23CC4(C2)[C@H](CN(Cc2cccnc2)[C@@H]4c2ccccc2)C3c2ccccc2)c1 (some centres unmarked) | 8.51
CC(=O)CSc1ncnc2c1oc1ccccc12 | 5.35
COCCNC(=O)C(c1ccco1)N(C(=O)Cn1nnc2ccccc21)c1cc(C)ccc1C (centres unmarked) | -4.75
CNC(=S)Nc1cc(C)ccc1OC(F)F | 2.85
COc1ccc(OC)c(NC(=S)N2CCCC2)c1 | 7.18

Compound | hERG current change (%, negative = inhibition) at 10uM [%]
Cc1ccc(C)c(OCCn2cc(/C=C(\C#N)C(=O)NCc3cccs3)c3ccccc32)c1 | 21.4
Cc1oc2cc(O)ccc2c(=O)c1-c1nncn1-c1ccccc1 | 20.2
COc1ccc(-c2cc(-c3ccc(C)cc3)nc(SCc3nnc(-c4ccccc4)o3)c2C#N)cc1OC | 18.7
CNC(=O)Nc1ccccc1C(=O)Nc1ccccc1 | 5.82
CCC(C)NC(=O)C1CCC(CNS(=O)(=O)c2ccc3c(c2)N(C(C)=O)CCO3)CC1 (centres unmarked) | 6.84
COc1ccc2nc(NC(=O)C3CCCO3)sc2c1 (centres unmarked) | -10.5
Cc1cccc(NC(=S)NC(=O)Cc2ccccc2)c1C | 26.5
COc1ccc2[nH]cc(CCNC(=O)c3ccco3)c2c1 | 12.3
COc1ccccc1NC(=O)NC1CCCCCCC1 | 22.5
C=CC[n+]1c(-c2ccc(OC)c(OC)c2)csc1NNC(=O)Nc1ccccc1.[Br-] | -6.07
O=C(O)CSc1nnc(Cn2cnc3ccccc32)n1CCc1ccccc1 | 22.3
C=CCNC(=O)CCCCC(=O)NCC=C | 8.15
Cc1ccc(-n2ncc3c(=O)[nH]c(SCC(=O)N4CCCCC4)nc32)cc1 | -8
Cc1ccc(CNc2nc3ccc(C)cc3n3cnnc23)cc1 | 11.8
CC(C)CN(C(=O)C1CCCO1)C1CCS(=O)(=O)C1 (centres unmarked) | -6.25
CCOC(=O)C1(Cc2cccc(OC)c2)CCN(CCO)CC1 | -54.3
CC(C)Oc1ccc(Cn2c(=O)sc3ccccc32)cc1 | -2.73
O=C(CO/N=C/c1ccc(OC(F)F)cc1)N1CCc2ccccc21 | -0.108
Cc1cc(C)nc(NC(N)=NC(C)c2ccccc2)n1 (centres unmarked) | -0.0621
c1cnn(-c2cc(N3CCOCC3)ncn2)c1 | 10.9
O=C(COC(=O)c1nc(Cl)ccc1Cl)c1ccccc1Cl | -7.56
CN(Cc1ccc(Br)s1)C(=O)CNC(=O)c1ccc2c(c1)OCO2 | -21.4
Nn1c(SCC(=O)N2CCOCC2)nnc1C1CC1 | 55.3

Compound | hERG current change (%, negative = inhibition) at 10uM [%]
CCC1CN(C(=O)N2CCC(C(=O)NCc3cccc(OC)c3OC)CC2)c2cc(C)ccc2O1 (centres unmarked) | -1.02
O=C(CN1C(=O)C(=O)N(Cc2ccccc2)C1=O)Nc1ccc(F)c(Cl)c1 | 10.6
Clc1ncc(CSc2ccccc2)s1 | 3.25
CCN(CC)S(=O)(=O)c1cccc(NC(=O)c2ccc(SC)cc2OC)c1 | -32.2
Cc1c(C(=O)Nc2nc(-c3ccccn3)cs2)oc2ccccc12 | 6.09
Cc1cc(C(=O)NNC(=O)c2ccccc2F)c2ccccc2n1 | 7.87
O=C(c1cccs1)N1CCN(C(=O)c2ccco2)c2ccccc2C1 | -13.6
CC1CC(C)CN(CCOc2ccc(Cl)cc2Cl)C1.O=C(O)C(=O)O (centres unmarked) | -67.3
O=[N+]([O-])c1ccc(N2CCN(C(=S)Nc3ccc(F)cc3)CC2)cc1 | -44.4
Cc1cc2oc(=O)cc(CSc3nnc(C)n3N)c2cc1C(C)C | -2.86
N#Cc1c(N2CCOCC2)nc(N2CCCCC2)c2c1CCN(C1CCCCC1)C2 | -29.1
CCOc1ccc(CCNC(=O)CCS(=O)(=O)c2ccc(Cl)cc2)cc1OCC | 16.6
O=C(O)Cc1sc(-c2cccnc2)nc1-c1ccc(Br)cc1 | 70.5
CCN(CC(=O)NCc1ccc(Cl)cc1)C(=O)c1cnc(Cl)c(Cl)c1 | 5.29
CC(C(O)c1ccccc1)N(C)CCn1cnc2c1c(=O)n(C)c(=O)n2C (centres unmarked) | 14
CCOc1ccc2nc(NC3=NC(C)(C)C=C(C)N3)nc(C)c2c1 | -47.8
c1ccc2c(CNc3ccc(CNc4ncn[nH]4)cc3)cccc2c1 | 1.99
O=C(CNC1CCCCC1)Nc1cccc([N+](=O)[O-])c1 | -9.63
O=c1c2cc(N3CCOCC3)ccc2[nH]c(=S)n1Cc1ccccc1Cl | 6.94
CS(=O)(=O)c1ccc(Cl)c(NC(=O)COC(=O)c2cccc(S(=O)(=O)N3CCCC3)c2)c1 | -51.5
O=C(CCS(=O)(=O)c1ccccc1)Nc1nc(-c2ccc(F)cc2)cs1 | -11
CSc1nc(C)cc(SCC(=O)Nc2ccc(Cl)cc2Cl)n1 | 3.18
CCOC(=O)C(NC(=O)c1ccccc1OCC)(Nc1ncccn1)C(F)(F)F (centres unmarked) | -10.4
